The values that follow come from publication PMC12040169 (PLOS Biology, 2025).

The list shows a part of the results.

In this assay the test system is T1, C. trachomatis L2/434/Bu expressing GFP (CTL2-GFP).
T1 construct: L2/434/Bu GFP intracellular growth in HeLa cells
Details: species or system HeLa; C. trachomatis total inclusion area by high-content imaging, normalised to DMSO. The note with it: total inclusion area; 28.5 h, 10 µM; inhibitor. A digest of the protocol:
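Bulk GFP and resorufin signals were read first. Wells were then fixed, stained with Hoechst and imaged to detect GFP inclusions and host nuclei. MICs followed the previously described calculation.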
As for `CN(C)S(=O)(=O)c1cc(C(=O)Nc2ccc(C(=O)O)cc2)c(Cl)cc1Cl` [CBK266783], the “% of control remaining” value amounted to 86.7404. Then `OC(Cn1c(Cc2ccccc2)nc2ccccc21)Cn1c2ccc(Cl)cc2c2cc(Cl)ccc21` (stereo not drawn) [CBK262546], with 91.9997; and `O=C(CSC1c2ccccc2Sc2ccccc21)Nc1ccc(C(=O)O)cc1` [CBK267542], with 89.0604; and `Cc1ccc(CS(=O)(=O)N(CC(C)C)C2CC2)c(F)c1` [CBK306460], with 34.7074.

For the compound `Cc1cc(Cl)ccc1OC(C)C(=O)NCc1ccccn1` (stereo not drawn) [CBK265441], the “% of control remaining” value was 112.517. Then `Cc1cccc(-c2ocnc2C(=O)NC(C)c2ccccn2)c1` (stereo not drawn) [CBK282427], with 109.199; and `Cc1noc(C)c1COc1ccc(C(=O)N[C@@H]2CN(C(=O)NC(C)C)CCC[C@H]2O)cc1` [CBK289069], with 71.6293; and `CCc1noc(C)c1C(=O)Nc1cccc(Cn2cc(Cl)cn2)c1` [CBK268127], with 107.507. Then `CS(=O)(=O)c1ccc2nc(NC(=O)c3ccco3)sc2c1` [CBK287341], with 132.659; and `Cc1ccccc1N1CCN(C(=O)c2nn[nH]c2Nc2ccccc2F)CC1` [CBK288032], with 78.5822.

In the case of `CCCOC1CCCN(Cc2cn(CC(N)=O)c3ccccc23)C1` (stereo not drawn) [CBK282796], the “% of control remaining” value was determined as 75.6962. Then `Cc1nn2cc(-c3n[nH]cc3[N+](=O)[O-])cnc2c1C(N)=O` [CBK268957], with 91.0525. As for `OCCN1CCN(c2nc(-c3cc(Cl)cc(Cl)c3)cn3ccnc23)CC1` [CBK066558], the “% of control remaining” value came out at 82.0627. As for `CC(C)Nc1nccnc1Sc1ccc(N)cc1` [CBK089485], the “% of control remaining” value is 104.658. Then `COc1cccc(CC(=O)N2C3CCC2CC(O)(c2ccco2)C3)c1` (stereo not drawn) [CBK284053], with 71.9993; and `Cc1nn(-c2cccc(C(=O)NC3CCCOC3)c2)c(C)c1Cl` (stereo not drawn) [CBK282512], with 109.396; and `CN1CCCN(c2ccc(NS(=O)(=O)c3cccc(F)c3)c3ccccc23)CC1` [CBK200010C], with 2.255. Consider `Cc1nc(C)c(C(=O)NCCN2CCCCC2C)s1` (stereo not drawn) [CBK282200], for which the “% of control remaining” value is reported as 91.9102. Then `O=C(NCCc1ccc(S(=O)(=O)NC(=O)NC2CCCCC2)cc1)NC1CCCCC1` [CBK011926], with 69.1357; and `CCCCc1ccc(C(N)=O)nc1C(N)=O` [CBK005061], with 62.596; and `Nc1ncc(-c2ccc(-c3ccccc3F)cc2)c2cccnc12` [CBK067597], with 85.0715. For the compound `C=CCOC(=O)N1CCC(C(=O)NC(c2ccccn2)c2ccccc2C)CC1` (stereo not drawn) [CBK059689], the “% of control remaining” value came to 99.4824.

`COc1ccc(/C=C2\S/C(=N/N=C/c3ccc(OC)cc3)N(c3ccc(O)cc3)C2=O)cc1` [CBK262780]: the “% of control remaining” value worked out at 107.668.

As for `COc1ccccc1-c1cccc(CC2(C(=O)NCCc3ccccc3)CCOCC2)c1` [CBK285593], the “% of control remaining” value was 99.9898.

`CCn1nc(C(C)C)cc1C(=O)N1CC2(CCNCC2)CC1C(=O)O` (stereo not drawn) [CBK307179]: the “% of control remaining” value was 98.4743.

In the case of `Cc1ccc(C(C)CCN2CC3CCCN3C[C@H]2C)o1` (stereo partly drawn) [CBK285467], the “% of control remaining” value is given as 107.126. As to `Cc1ccc(OCCSc2nnc3[nH]c4ccccc4n23)cc1` [CBK267922], the “% of control remaining” value was 109.299. As for `CCCOc1ccc(-c2cc(C(=O)NO)n[nH]2)cc1C` [CBK288362], the “% of control remaining” value came to 44.3885. Then `COC(=O)c1ccccc1OCCc1csc(NS(=O)(=O)c2cccc(Cl)c2C)n1` [CBK023735], with 89.5756; and `O=S(=O)(Nc1ccc(C(O)(C(F)(F)F)C(F)(F)F)cc1)c1ccc(Cl)c(Cl)c1` [CBK062102], with 105.528. Then `COc1cccc(CC(=O)N2CCCC2c2nc3ccccc3[nH]2)c1` (stereo not drawn) [CBK283665], with 115.475; and `CCN(CC)c1ccc(SC)n1C` [CBK020929], with 48.5931. Then `CCn1cc(C2CN(S(=O)(=O)c3cccc(COC)c3)CCO2)cn1` (stereo not drawn) [CBK304222], with 16.2388. In the case of `c1ccc(-c2n[nH]c(-c3ccncc3)c2-c2nc3ccccc3[nH]2)cc1` [CBK262180], the “% of control remaining” value is 99.1223. On to `CCN(CC)CCO/N=C1\CC2(CCCCC2)c2ccccc21` [CBK013325], for which the “% of control remaining” value is recorded as 42.2099. For `CC(C)NC(=O)CN(C)Cc1nc(-c2cccc(C(F)(F)F)c2)no1` [CBK306036], the “% of control remaining” value came out at 66.3273. Then `CCN1CCN(C(=O)c2ccccc2N(Cc2ccccc2)S(=O)(=O)c2ccc(C)cc2)CC1` [CBK266827], with 102.995; and `Cc1nn(C)c(Cl)c1S(=O)(=O)Nc1nn(Cc2ccc(C#N)cc2)c2ccccc12` [CBK048185], with 91.2327; and `O=C(O)CCCCCNC(=S)Nc1cccc(Cl)c1` [CBK288446], with 55.3363. For the compound `O=C(O)C1CCCN1C(=O)Nc1ccccc1Cl` (stereo not drawn) [CBK161381], the “% of control remaining” value came to 51.8272. On to `COC(=O)c1c(NC(=O)C(Sc2ccccc2)c2ccccc2)sc2c1CCC(C(C)(C)C)C2` (stereo not drawn) [CBK262603], for which the “% of control remaining” value is on record as 95.1338. On to `COc1ccc(Br)cc1/C=N/Nc1nc(NCc2ccccc2)nc(N2CCOCC2)n1` [CBK261232], for which the “% of control remaining” value is 97.7372. As to `Cc1ccc(-c2nnc(CNC(=O)Cc3ccc(F)cc3)o2)s1` [CBK284645], the “% of control remaining” value came to 102.252.

`COC(=O)c1cn(C(=O)CCCN2C(=O)c3ccccc3C2=O)c2ccccc12` [CBK266799]: the “% of control remaining” value is listed as 111.986. Then `O=S(=O)(Nc1ccc2[nH]ccc2c1)c1ccc(Br)cc1F` [CBK153510], with 97.6395. Then `O=C(O)CCC(=O)NN1C(=O)c2ccccc2NC1c1ccc(F)cc1` (stereo not drawn) [CBK286905], with 76.9373. Take `O=[N+]([O-])c1ccc(Sc2nnc(COc3ccccc3)n2-c2ccccc2)nc1` [CBK265041]: the “% of control remaining” value came to 66.226.

As to `CN1CCN(C(=O)c2ccccc2N(Cc2ccccc2)S(C)(=O)=O)CC1` [CBK266267], the “% of control remaining” value was 102.334. Then `Oc1cc(C(F)(F)F)nc(SCc2ccc(Cl)cc2)n1` [CBK002305], with 100.642. Then `CCOC(=O)c1ccsc1NC(=O)C1CC=CCC1C(=O)O` (stereo not drawn) [CBK270291], with 104.722; and `Cn1cc(-c2nccnc2OC(c2ccccc2)c2ccccc2)cn1` [CBK107073], with 105.314.
